The record followed here is the RNAGym collection of RNA variant scans (doi:10.1093/nar/gkz1192).

B1: CPEB3 Ribozyme (parent)
chain: UAACAGGGGGCCACAGCAGAAGCGUUCACGUCGCAGCCCCUGUCAGAUUCUGGUGAAUCUGCGAAUUCUGCUGUAUAUCUC

Read counts are not given, so values of variants with three or more changes are uncertain.

Variants of B1 are the subject of the data set. In words: self-cleavage, relative activity (ratio to wild type); higher = more cleavage; in vitro, sequencing. The essentials: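 Barcoded CPEB3 ribozyme mutants, produced by rounds of error-prone PCR, self-cleaved while being transcribed with T7 RNA polymerase for 5 hours at 37°C and during a subsequent 15 min DNase I step before EDTA was added. Sequencing of template-switched cDNA on Illumina gave cleaved and total reads, and DNA sequencing assigned barcodes to variants. Each variant's relative activity is its cleaved/total read fraction divided by the unmutated ribozyme's fraction, averaged across three batches. A variant needed a minimum of 5 reads.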
In the case of A3G U26C G30C, the self-cleavage was found to be 0.49.

On to C4G U51A U69A U78C, for which the self-cleavage is 0.68. Turning to A3G U60C A75C U78C, the self-cleavage came to 0.36. For the variant A3G U49C U60A U76C, the self-cleavage amounted to 0.62. For the variant C4G A21G C68A, the self-cleavage worked out at 0.23.

C4G U43A G73A U76A: the self-cleavage was 1.23. With A5C A15G U25C U26A C44U U48C A64G, the self-cleavage is 0.05. The value for A3U U58A U80C was 0.59; that for A3G U26A U51A U80C was 0.81; that for A5C A13G U60C A64G was 0.43. On to C4U A45G U80A, for which the self-cleavage is 1.1.

On to A3U G9A C44A U54C, for which the self-cleavage came to 0.44. On to A3U U31C U51C, for which the self-cleavage came out at 0.97. A3U U51A U80C: the self-cleavage is 0.99. For the variant A3U C23G U51C, the self-cleavage came to 0.1. The value for A3G U26C A35G U48C U49C U60A G61A was 0.31.

Consider A5C A20G U31C A65G, for which the self-cleavage was determined as 0.16. Consider A3U A5G A56G U72C, for which the self-cleavage amounted to 0.74. With C4U C11U G16A C17U A35G U60C U78G, the self-cleavage was 0.09. On to C4A C11U C23U U48C U49C, for which the self-cleavage was determined as 0.06.

On to A3G U31A A35U G36C A64U U74C A75C, for which the self-cleavage was determined as 0.07. In the case of A3G U26C A56G, the self-cleavage was determined as 0.4. The value for C4U U31C A45G U51G was 0.48; that for A5C A18C U26C A35G U51A was 0.61. On to A3G U26G U69C, for which the self-cleavage turned out to be 0.13. As to A3G U31A C32U, the self-cleavage was found to be 0.65. With A3U A5C A47U U58C, the self-cleavage came to 0.32. Regarding A3U U25C G46U, the self-cleavage was determined as 0.08. Under C4U A18G A20G A21U stands 0.15. A3U A13G A18U U54A A56U U69C U76A: the self-cleavage was 0.16.

On to A3U A20U U31A U76C, for which the self-cleavage came to 0.11. Under A3U A56G U80C stands 1.1. For the variant A3U C12A A13G A21U A28U A64G, the self-cleavage was 0.36. The value for A5C C17U U31C U48C U54C U74C A75G was 0.12.

A3U C11G A15U A35U A77U: the self-cleavage is 0.82.

For A5C A21G U25C U31A A35U U60C U69G, the self-cleavage was found to be 0.04. Take A5C A18U A28C U51A: the self-cleavage was determined as 0.11. C4U A13U A45U A56G A65U U67C: the self-cleavage was determined as 0.21.

In the case of A3U A18U U26A C34G U54A, the self-cleavage came out at 0.13. In the case of A3G U26C U41A A57G U78C, the self-cleavage came to 0.21.

Regarding A3G U26C U41C U43A U67A, the self-cleavage turned out to be 0.45. As to C4U C37G G63A A65G, the self-cleavage was 0.39.

As to C4U U49A U54C, the self-cleavage was determined as 0.68. For the variant A3G U25C U41C G52A A56U U80C, the self-cleavage came to 0.37.

On to A3U A45U U54C C79A, for which the self-cleavage worked out at 0.67. On to A3U G6A C29U U49C U72C U80C, for which the self-cleavage worked out at 0.29. In the case of A3U A21U U25C U60C, the self-cleavage is 0.29. On to A3U A18G U43C U48C U58C, for which the self-cleavage was 0.06. Consider A3U C14G A18U A20G U41C U69A, for which the self-cleavage came out at 1.06.

In the case of A3U U25C A35U U60A C79A, the self-cleavage was 0.08. Under A3G U26C U72A U78C U80C stands 0.64; under A3U A35C U49A A64U, 0.1.

In the case of A3U C32A C59G U67C, the self-cleavage is 0.08.

Consider A3U A5G U25A U49C U72C U78C, for which the self-cleavage worked out at 0.1. A3G U25C U31G G33C A57G U60A U72C: the self-cleavage was 0.35.

For A3G U58C U72G, the self-cleavage came out at 0.41.

For the variant A3G U74C A77U, the self-cleavage amounted to 1.22.

Take C4G U41A U43C U69A: the self-cleavage was found to be 0.17. The value for A3G U26A G33A A35G U49A C50U U51C was 0.09; that for A3U U25C A64G was 0.41; that for A3U C12U A56G A57G U69C was 0.21.

Consider C4U A5G A13U, for which the self-cleavage was 1.09. In the case of C4A A5U U69A, the self-cleavage came to 0.91. As for A3U A18G G52A, the self-cleavage was found to be 0.88. For the variant C4G U54A G70C U72C A75U, the self-cleavage stood at 0.56. A5C A13G U25C A56G: the self-cleavage came to 0.07.

As for A3U A5G A65G, the self-cleavage was determined as 0.31. With C4A A21G U69A, the self-cleavage was found to be 0.31. Regarding A3U G10C G24U A35G U54C U72A, the self-cleavage worked out at 0.08.

In the case of A3U U51C U58A A65G, the self-cleavage was found to be 0.17. The value for A3U U26C C40G U69G U76C was 0.03; that for A3G U31A A45U was 0.44. Regarding A3U A18G A20G A35G C40A, the self-cleavage worked out at 0.16. A3G U41A A47U U54A U67C U72C: the self-cleavage is 0.21.

With C4U A13U A56U U80A, the self-cleavage stood at 1.16. Under C4G A15G C17G A35U G36A stands 0.07; under A3G U25C A64G, 0.25. On to A3G U26C U31A, for which the self-cleavage was 0.36. In the case of A3G U25C A45G U67G, the self-cleavage was determined as 0.24. In the case of A3G U54C U58A A64G, the self-cleavage was 0.46. The value for A3U A45G U48C A64U U69C U76C was 0.15; that for A3U G6A U31C U41A U58A U67A was 0.06.

Consider C4G A5U U25C, for which the self-cleavage came out at 0.27. The value for C4G A13U A15U U31C was 0.82.
